# Reference: PubChem BioAssay (Tox21)
# Values joined by “and” are separate entries in the source; they are usually repeats but may differ in a detail not shown here. Identical values can stand only once. The shares of active, inactive and inconclusive entries below differ from those in the screen. For some of these results: Potencies beside an inconclusive call are fits to weak or partial responses and may not hold up. Active and inactive are the calls of the source. Unless noted, calls follow the shape of the dose curve; as a rule, active = well fitted curve in the direction sought with a large enough effect in the repeat runs; inconclusive = weak or mixed curves; inactive = no such curve, though single readings can be large; an effect the other way counts as inactive or inconclusive.
# Columns and labels:
# [1] = qHTS assay to identify small molecule antagonists of the estrogen related receptor (ERR) signaling pathway from Tox21 library - cell viability counter screen (AID 1224834); also: potency is read from the fitted curve at half-maximal effect; nearly all actives have a fitted effect of over 30% in size
# In short: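 Seeded ERR cells were rested 6 h at 37 C/5% CO2 before compounds, positive and negative controls or DMSO were added. Incubation continued for 17.5 h, and viability was then quantified by CellTiter-Fluor fluorescence.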
# [2] = target: Luciferin 4-monooxygenase (Photinus pyralis) (UniProt P08659); experiment: qHTS assay to identify small molecule inhibitors of firefly luciferase (AID 1224835); also: potency is read from the fitted curve at half-maximal effect; nearly all actives have a fitted effect of over 25% in size
# UniProt P08659, sequence (P08659 whole entry, looked up): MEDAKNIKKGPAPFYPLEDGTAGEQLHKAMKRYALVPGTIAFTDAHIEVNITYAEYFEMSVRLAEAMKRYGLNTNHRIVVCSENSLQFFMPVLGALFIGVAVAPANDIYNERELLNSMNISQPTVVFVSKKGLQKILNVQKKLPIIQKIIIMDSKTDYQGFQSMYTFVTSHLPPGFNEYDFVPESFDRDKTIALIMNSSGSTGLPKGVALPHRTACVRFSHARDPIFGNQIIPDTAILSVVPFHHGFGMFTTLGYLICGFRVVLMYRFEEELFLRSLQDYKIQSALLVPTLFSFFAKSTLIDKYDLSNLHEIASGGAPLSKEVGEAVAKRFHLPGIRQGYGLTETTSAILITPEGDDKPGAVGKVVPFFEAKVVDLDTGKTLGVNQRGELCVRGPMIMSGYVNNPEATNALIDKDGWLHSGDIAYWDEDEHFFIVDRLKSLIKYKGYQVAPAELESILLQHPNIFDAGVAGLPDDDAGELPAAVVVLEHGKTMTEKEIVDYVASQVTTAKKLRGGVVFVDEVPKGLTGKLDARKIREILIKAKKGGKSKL
# In short: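 Inhibition of purified Photinus luciferase is measured by luminescence. Substrate levels (D-luciferin, ATP) sit at their KM values. Each compound is tested in a concentration series.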
# [3] = target: Thyrotropin receptor (Homo sapiens) (UniProt P16473); experiment: qHTS assay to identify small molecule agonists of the thyroid stimulating hormone receptor (TSHR) signaling pathway (AID 1224843; calls by dose curve; also: % is scaled to controls: 0 for no effect and ±100 for the full control effect; nearly all actives have a fitted effect of over 45% in size); details: TSHR-HEK293 cells, cAMP HTRF, agonist mode, 30 min; activation: at 92.4 µM (top of the series) unless noted
# UniProt P16473, sequence (P16473 whole entry, looked up): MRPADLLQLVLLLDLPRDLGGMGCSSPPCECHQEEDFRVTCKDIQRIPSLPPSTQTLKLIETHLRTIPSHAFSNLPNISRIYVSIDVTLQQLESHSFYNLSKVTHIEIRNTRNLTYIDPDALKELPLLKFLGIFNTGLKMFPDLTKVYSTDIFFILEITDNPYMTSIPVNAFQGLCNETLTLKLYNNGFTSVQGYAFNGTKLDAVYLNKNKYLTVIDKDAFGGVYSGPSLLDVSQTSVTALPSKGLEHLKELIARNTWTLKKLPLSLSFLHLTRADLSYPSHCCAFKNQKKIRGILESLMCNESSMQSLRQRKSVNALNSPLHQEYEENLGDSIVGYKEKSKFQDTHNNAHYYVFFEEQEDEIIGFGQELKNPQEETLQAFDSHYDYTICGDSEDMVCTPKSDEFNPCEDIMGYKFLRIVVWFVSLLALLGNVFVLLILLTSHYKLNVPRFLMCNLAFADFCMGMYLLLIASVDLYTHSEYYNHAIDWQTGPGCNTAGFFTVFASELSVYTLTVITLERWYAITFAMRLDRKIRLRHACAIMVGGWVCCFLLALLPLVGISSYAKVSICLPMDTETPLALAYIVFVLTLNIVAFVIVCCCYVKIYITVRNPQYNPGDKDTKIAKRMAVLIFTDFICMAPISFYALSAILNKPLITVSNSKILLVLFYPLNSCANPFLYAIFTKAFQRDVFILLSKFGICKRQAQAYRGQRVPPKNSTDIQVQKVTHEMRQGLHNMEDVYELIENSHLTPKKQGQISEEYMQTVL
# In short: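 A cell-based cAMP HTRF format was run in TSHR-transfected HEK293 cells, 800 per well. Treatment: 30 min, room temperature. Detection: 1 h with labelled cAMP and anti-cAMP cryptate. Concentration-response over 15 points, three replicates.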
# [4] = qHTS assay to identify small molecule agonists of the constitutive androstane receptor (CAR) signaling pathway - cell viability counter screen (AID 1224836); also: potency is read from the fitted curve at half-maximal effect; nearly all actives have a fitted effect of over 45% in size
# In short: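 23 h treatment, 37 C, 5% CO2. Cell line: HepG2 stably expressing hCAR with a CYP2B6-2.2kb construct. Co-treatment: PK11195, 0.75 uM final. Read-out: CellTiter-Fluor fluorescence intensity.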
# [5] = qHTS assay to identify small molecule antagonists of the constitutive androstane receptor (CAR) signaling pathway - cell viability counter screen (AID 1224837); also: potency is read from the fitted curve at half-maximal effect; nearly all actives have a fitted effect of over 45% in size
# In short: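 To flag cytotoxic false antagonists, HepG2 hCAR/CYP2B6-2.2kb cells were treated 23 hr with 15-concentration compound series and 50 nM CITCO at 37 C/5% CO2; CellTiter-Fluor fluorescence was the measured end point.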
# [6] = qHTS assay to identify small molecule antagonists of the estrogen related receptor signaling pathway with the pleiotropic PPARgamma coactivator (PGC) from Tox21 10K library - cell viability counter screen (AID 1224840; active = well fitted cell-killing curve with a large enough effect in the repeat runs, not every such curve was filed as active; inconclusive = weak or mixed curves, or effect the other way; inactive = no such curve, though single readings can be large or run the other way; also: nearly all actives have a fitted effect of over 40% in size; also: potency is read from the fitted curve at half-maximal effect)
# In short: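 Seeded PGC/ERR cells (2,000/well, 6 h, 37 C/5% CO2) get compound by pin tool; 17.5 h incubation at 37 C; CellTiter-Fluor added, 30 min, fluorescence measured.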
# [7] = target: Nuclear receptor subfamily 1 group I member 3 (Homo sapiens) (UniProt Q14994); experiment: qHTS assay to identify small molecule agonists of the constitutive androstane receptor (CAR) signaling pathway (AID 1224839); also: potency is read from the fitted curve at half-maximal effect; nearly all actives have a fitted effect of over 15% in size
# UniProt Q14994, sequence (Q14994 whole entry, looked up): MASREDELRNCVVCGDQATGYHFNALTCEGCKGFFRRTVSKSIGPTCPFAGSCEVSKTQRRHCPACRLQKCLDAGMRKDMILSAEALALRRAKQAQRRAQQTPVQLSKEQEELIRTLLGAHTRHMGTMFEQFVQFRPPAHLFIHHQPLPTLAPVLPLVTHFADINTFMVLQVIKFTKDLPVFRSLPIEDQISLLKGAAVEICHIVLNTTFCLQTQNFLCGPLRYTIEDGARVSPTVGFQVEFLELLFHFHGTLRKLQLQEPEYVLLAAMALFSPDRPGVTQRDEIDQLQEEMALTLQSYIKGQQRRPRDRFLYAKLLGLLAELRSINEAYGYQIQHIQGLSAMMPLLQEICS
# In short: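 Compounds tested at 15 concentrations on HepG2 cells stably harbouring hCAR and CYP2B6-2.2kb reporter constructs, co-treated with PK11195 (0.75 uM final), 24 h at 37 C; luminescent reporter signal quantified.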
# [8] = qHTS RealTime-Glo MT Cell Viability Assay in HEK293 cells - 32 hour (AID 1224868); also: nearly all actives have a fitted effect of over 50% in size; also: potency is read from the fitted curve at half-maximal effect
# In short: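 Viability tracked continuously by luminescence as live cells reduce a prosubstrate for NanoLuc; HEK293 cells preincubated 5 h, compound-treated at 37 C, and read at 0, 8, 16, 24, 32 and 40 h.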
# [9] = qHTS assay to identify small molecule antagonists of the estrogen related receptor signaling pathway with the pleiotropic PPARgamma coactivator (PGC) from Tox21 10K library (AID 1224841; call rule not given here; also: potency is read from the fitted curve at half-maximal effect; actives are mostly falling curves and most rising ones were filed inactive; nearly all actives have a fitted effect of over 50% in size)
# In short: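 Test chemicals dissolved in DMSO were applied to pre-incubated (6 h) PGC/ERR cells at 2,000 cells/well for an 18 h, 37 C treatment; reporter luminescence was then read using One-Glo.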
# [10] = qHTS assay to identify small molecule antagonists of the estrogen related receptor (ERR) signaling pathway from Tox21 library (AID 1224848); also: potency is read from the fitted curve at half-maximal effect; nearly all actives have a fitted effect of over 50% in size
# In short: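 ERR cell line, 2,000 cells/well. 6 h settle, then compound (DMSO) added; 18 h at 37 C; ONE-Glo luminescence after 30 min RT.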
# Tags tell the direction and shape of the fitted curve.
smiles,measurement,setting,value
Cc1ccc(N)c([N+](=O)[O-])c1,Potency,[1],"inconclusive: 67.8 µM [cytotoxic, partial curve, poor fit]"
same,Potency,[2],"inconclusive: 88.3 µM [inhibitor, single point] and inconclusive: 56.4 µM [inhibitor, partial curve]"
same,activation,[3],inconclusive: -41.4%
O=[N+]([O-])c1ccc(NCCO)c(OCCO)c1,Potency,[1],active: 30.7 µM
same,Potency,[4],active: 43.3 µM
same,Potency,[5],active: 48.6 µM
same,Potency,[6],active: 48.6 µM
CCOc1ccccc1N,Potency,[1],"inconclusive: 27.1 µM [cytotoxic, partial curve]"
same,Potency,[4],"inconclusive: 30.4 µM [cytotoxic, full curve]"
same,Potency,[5],"inconclusive: 54.1 µM [cytotoxic, partial curve]"
same,Potency,[7],"inconclusive: 21.5 µM [activator, partial curve]"
Cc1ccc(/C(=C\CN2CCCC2)c2ccccn2)cc1,Potency,[1],"inconclusive: 72.1 µM [cytotoxic, single point]"
same,Potency,[4],"inconclusive: 28.7 µM [cytotoxic, partial curve]"
same,Potency,[5],"inconclusive: 40.6 µM [cytotoxic, partial curve]"
same,Potency,[6],"inconclusive: 64.3 µM [cytotoxic, single point] and inactive"
same,Potency,[8],"inconclusive: 20.5 µM [cytotoxic, partial curve] and inactive"
Clc1ccc(Cn2c(CN3CCCC3)nc3ccccc32)cc1,Potency,[1],"inconclusive: 23.7 µM [cytotoxic, partial curve]"
same,Potency,[5],"inconclusive: 11.9 µM [cytotoxic, single point]"
same,Potency,[7],active: 11.9 µM
same,Potency,[8],"inconclusive: 26.8 µM [cytotoxic, single point]"
CCNC(=O)N1CCN(CCCC(c2ccc(F)cc2)c2ccc(F)cc2)CC1,Potency,[1],active: 18.8 µM
same,Potency,[4],"inconclusive: 33.5 µM [cytotoxic, single point]"
same,Potency,[7],"inconclusive: 33.5 µM [activator, single point]"
same,Potency,[6],"inconclusive: 33.5 µM [cytotoxic, single point]"
same,Potency,[9],"inconclusive: 6.68 µM [falling, full curve, poor fit]"
same,activation,[3],inconclusive: -17.6% [at 42.5 µM]
CN1CCN(C2=Nc3ccccc3Oc3ccc(Cl)cc32)CC1,Potency,[1],"inconclusive: 29.8 µM [cytotoxic, single point]"
same,Potency,[4],"inconclusive: 13.3 µM [rising, single point]"
same,Potency,[7],"inconclusive: 13.3 µM [activator, single point]"
same,Potency,[9],"inconclusive: 6.68 µM [falling, full curve]"
same,Potency,[10],inconclusive: 29.8 µM [inhibitor]
